Measured values published in PubChem BioAssay AID1745853 (National Center for Advancing Translational Sciences (NCATS), 2022).
The list shows a part of the results. These are further read-outs of the screen, such as a control signal, another cell line or another target. No call is given for them.

Assays:
Assay in all cases: Primary Screen for Target Class Profiling of Small Molecule Inhibitors of Methyltransferases
[1] = biological target: Glycine N-methyltransferase (Homo sapiens) (UniProt Q14749); settings: purified enzyme, MTase-Glo SAH luminescence; measured here: GNMT inhibition; at 40 µM; stronger effect = lower value
Source text: (§1) PI: Matthew D. Hall Ph.D. and Quinlin M. Hanson Ph.D.
(§2) National Center for Advancing Translational Sciences (NCATS)
(§3) National Institute of Health (NIH), Rockville, MD
(§4) Target class profiling (TCP) is a chemical biology approach amenable to investigating understudied biological targets. TCP is achieved by developing a generalizable assay platform and applying it to screen a curated set of compound libraries against representative members of a target class. Small molecule methyltransferases (SMMTase) are a subclass of methyltransferase that act on metabolites to modulate signaling pathways, metabolize xenobiotics, or balance the available methyl pool. We screened four curated libraries totaling 27,574 unique compounds against the SMMTases nicotinamide N-methyltransferase (NNMT), phenylethanolamine N-methyltransferase (PNMT), histamine N-methyltransferase (HNMT), glycine N-methyltransferase (GNMT), catechol O-methyltransferase (COMT), and guanidinoacetate N-methyltransferase (GAMT). The data generated by this TCP can be leveraged for informed tool molecule development. For example, in the associated publication we identified a chemotype of HNMT-selective inhibitors. Additionally, we identified a putative SMMTase-selective inhibitor with potential as a tool molecule for studying broader methyltransferase biology.
(§5) High-through put screening assays were developed at the National Center for Advancing Translational Science (NCATS) for the enzymes NNMT, PNMT, HNMT, GNMT, COMT, and GAMT. Enzymatic activity was measured as a function of SAM cofactor conversion using the MTase Glo kit (Promega) for all enzymes. All assays were performed in 1536-well format with substrates and SAM concentrations at KM values. Enzyme concentration and assay timing were optimized for 10-20% SAM conversion. Initial screening of 27,574 compounds was done as single-point assays using the highest compound concentration (40 uM). […] These compounds were replated in 11-point dose response and assayed against NNMT, PNMT, HNMT, GNMT, COMT, GAMT, and a counter-assay. The IC50 and efficacy (maximal response) values were determined for each dose-response curve. These values are also accounted for in the area under the curve (AUC) values.
(§6) PROTOCOL TABLE (as described by Inglese J, Shamu CE and Guy RK. 2007)
(§7) SEQUENCE No. (e.g., 1, 2, 3, etc.); […] (e.g., Cells, Incubation, Reagent, etc.); VALUE; DESCRIPTION.
(§8) 1; Reagent; 2 uL; SMMTase Enzyme (2x) in reaction buffer, columns 1- 48.
(§9) 2; Reagent; 1 uL; SAM (4x) in reaction buffer, columns 1-48.
(§10) 3; Controls; 23 nL; DMSO in column 4; sinefungin in DMSO (0 uM - 40 uM) in 7-point 1:2 dilution series (n = 2) in column 2.
(§11) 4; Compounds; 23 nL; Columns 5-48.
(§12) 5; Reagent; 1 uL; Substrate (4x) in reaction buffer, columns 2-48.
(§13) 6; Time; 20-30 min; Incubation.
(§14) 7; Reagent; 1 uL; MTase-Glo reagent (5X), columns 1-48.
(§15) 8; Time; 30 min; Incubation.
(§16) 9; Reagent; 5 uL; MTase-Glo Detection reagent, columns 1-48.
(§17) 10; Time; 30 min; Incubation, luminescence evolution.
(§18) 11; Detection; Luminescence; ViewLux uHTS Microplate Imager (PerkinElmer).
(§19) NOTES (numbers refer to Sequence numbers above)
(§20) 1, 2, 5. White Medium Binding Greiner 1536-well plates (Cat #789175-F, Greiner Bio-One, Monroe, NC); Reaction buffer: 50 mM Tris, pH 8.0, 3 mM MgCl2, 1 mM EDTA, 50 mM NaCl, 1 mM DTT, and 0.1 mg/mL BSA. Evaporation was prevented by covering assay plates with metal lids containing holes to allow gas diffusion.
(§21) 1. Six SMMTase were profiled: HNMT, GNMT, PNMT, COMT, NNMT, GAMT
(§22) 5. The corresponding substrate was used for each enzyme: HNMT - 5.3 uM Histamine; GNMT - >500 uM Glycine; PNMT - 16.2 uM Norephinephrine; COMT - 13.7 uM Norephinephrine; NNMT - 3.8 uM Nicotinamide; GAMT - 2.5 uM Guanidinoacetate.6, 8, 10. Room temperature
(§23) 6. Final reaction conditions: 10 nM COMT, 5 uM SAM, 15 uM norepinephrine, 50 mM Tris, pH 8.0, 3 mM MgCl2, 1 mM EDTA, 50 mM NaCl, 1 mM DTT, and 0.1 mg/mL BSA; refer to tables 2 and S1 for specific timing.
8. […]

[2] = biological target: Guanidinoacetate N-methyltransferase (Homo sapiens) (UniProt Q14353); settings: purified enzyme, MTase-Glo SAH luminescence; measured here: GAMT inhibition; at 40 µM; stronger effect = lower value
Source text: as §1, §2, §3, §4, §5, §6, §7, §8, §9, §10, §11, §12, §13, §14, §15, §16, §17, §18, §19, §20, §21, §22, §23
8. […]

[3] = biological target: Histamine N-methyltransferase (Homo sapiens) (UniProt P50135); settings: purified enzyme, MTase-Glo SAH luminescence; measured here: HNMT inhibition; at 40 µM; stronger effect = lower value
Source text: as §1, §2, §3, §4, §5, §6, §7, §8, §9, §10, §11, §12, §13, §14, §15, §16, §17, §18, §19, §20, §21, §22, §23
8. […]

[4] = biological target: Nicotinamide N-methyltransferase (Homo sapiens) (UniProt P40261); settings: purified enzyme, MTase-Glo SAH luminescence; measured here: NNMT inhibition; at 40 µM; stronger effect = lower value
Source text: as §1, §2, §3, §4, §5, §6, §7, §8, §9, §10, §11, §12, §13, §14, §15, §16, §17, §18, §19, §20, §21, §22, §23
8. […]

[5] = biological target: Phenylethanolamine N-methyltransferase (Homo sapiens) (UniProt P11086); settings: purified enzyme, MTase-Glo SAH luminescence; measured here: PNMT inhibition; at 40 µM; stronger effect = lower value
Source text: as §1, §2, §3, §4, §5, §6, §7, §8, §9, §10, §11, §12, §13, §14, §15, §16, §17, §18, §19, §20, §21, §22, §23
8. […]
% is scaled to controls: 0 for no effect and ±100 for the full control effect.

SMILES	activity change, negative = inhibition [1]	activity change, negative = inhibition [2]	activity change, negative = inhibition [3]	activity change, negative = inhibition [4]	activity change, negative = inhibition [5]
COc1ccccc1CN[C@H]1C2CCN(CC2)[C@H]1C(c1ccccc1)c1ccccc1	5.47%	14.7%	10.5%	-5.23%	5.11%
O=C(Nc1ccc2c(c1)OCCO2)N1Cc2ccccc2-n2cccc2C1c1ccccc1Cl (stereo not given)	-0.663%	0%	-1.79%	-5.11%	-1.92%
CCn1c(CO)nnc1C1CC(NC(=O)c2cnn(Cc3ccccc3)c2)C1 (stereo not given)	-3.34%	-5.58%	0.574%	-9.58%	10%
CCc1ccc(C2c3cccn3-c3ccccc3CN2C(=O)Nc2cccc(C)c2C)cc1 (stereo not given)	11%	0.024%	4.52%	3.12%	6.92%
CC(C)C1c2cccn2-c2ccccc2CN1C(=O)Nc1ccc(F)cc1 (stereo not given)	1.85%	1.35%	6.8%	6.9%	9.8%
CC(=O)OC[C@]12C[C@H](OC(=O)CC(C)C)C(C)=C[C@H]1O[C@@H]1[C@H](O)C[C@@]2(C)[C@]12CO2	0%	3.49%	1.14%	-9.51%	6.02%
Cc1ccc(Cl)cc1NC(=O)N1Cc2ccccc2-n2cccc2C1c1ccccc1C (stereo not given)	1.23%	0%	3.5%	8.9%	-3.31%
O=c1[nH]oc2c1CCNC2	0.603%	11.6%	3.56%	-4.63%	4.61%
O=C1N[C@@H](Cc2ccccc2)CN2CCCC[C@@H]12	-2.96%	-5.34%	0.298%	-13.8%	-1.45%
COc1cc(C(O)CN)ccc1O (stereo not given)	-2.33%	4.68%	-16.8%	-3.37%	10.3%
CC(C)(O)/C=C/C(=O)[C@](C)(O)[C@H]1[C@H](O)C[C@@]2(C)[C@@H]3CC=C4[C@@H](C[C@H](O)C(=O)C4(C)C)[C@]3(C)C(=O)C[C@]12C	-0.979%	-3.07%	7.09%	-13.3%	4.94%
O=C(C[C@@H]1NCCC[C@H]1O)Cn1cnc2ccccc2c1=O	-1.61%	-10.4%	9.63%	-12.5%	3.58%
CO[C@@H]1[C@@H](O)[C@@H](O[C@H]2CC[C@]3(C=O)C4CC[C@]5(C)[C@@H](C6=CC(=O)OC6)CC[C@]5(O)[C@@H]4CC[C@H]3C2)O[C@@H](C)[C@H]1O[C@@H]1O[C@H](CO[C@@H]2O[C@H](CO)[C@@H](O)[C@H](O)[C@H]2O)[C@@H](O)[C@H](O)[C@H]1O (stereo not given in full)	3.26%	0.497%	10.6%	-12.3%	-5.21%
C#C[C@H]1CN2CC[C@H]1C[C@@H]2CNS(=O)(=O)CCC	-5.99%	-10.6%	-6.5%	-14.4%	-13.8%
CCOC(=O)Nc1ccc(NCc2ccc(F)cc2)cc1N	1.03%	4.76%	10.5%	-13.6%	0.991%
O=C(NC1CCCC1)N1Cc2ccccc2-n2cccc2C1c1ccccc1Cl (stereo not given)	7.2%	1.52%	6.94%	-5.48%	1.49%
CCOc1ccc(C2c3cccn3-c3ccccc3CN2C(=O)Nc2ccc(F)cc2F)cc1 (stereo not given)	2.31%	0.634%	3.43%	6.26%	4.75%
Cc1ccc(C2c3cccn3-c3ccccc3CN2C(=O)Nc2ccc(Br)cc2)cc1 (stereo not given)	5.93%	0%	4.76%	2.94%	4.84%
